According to PubChem BioAssay (NCI):
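Cells were grown in 96-well plates and exposed to each compound for 48 hours at five concentrations; endpoints were interpolated linearly between bracketing concentrations, or set to the highest concentration if not reached. GI50 is the concentration that inhibits growth by half. TGI: concentration producing complete growth inhibition.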

Test system: NCI-H322M lung
Assay: DTP human tumour cell line panel, 48 h

| Structure (SMILES) | GI50 [µM] | TGI [µM] |
| --- | --- | --- |
| O=C(/C=C/c1ccccc1)c1nc2ccccc2n1Cc1ccc(Br)cc1 | 3.23 | 11.3 |
| O=C(/C=C/c1cccc(Br)c1)c1nc2ccccc2n1Cc1ccc(F)cc1 | 13.4 | 50.3 |
